Laboratory results from PubChem BioAssay AID1468 (National Center for Advancing Translational Sciences (NCATS), 2008).
Several values for one entry are separate records, joined by “and”; a condition that tells them apart may be missing. Identical values can stand only once. The whole screen tested about 280,000 compounds, of which about 1,100 (0.39%) were called active. Inconclusive means that the source gave no clear call. Such entries were picked first, then a sample of the others. Calls follow the shape of the dose curve; as a rule, active = well fitted inhibition curve with a large enough effect; inconclusive = small, poorly fitted or top-dose-only effect, or effect the other way; inactive = flat fitted curve, though single readings scatter. A potency beside an inconclusive call is a rough fit, not a confirmed value.

Target: Microtubule-associated protein tau (Homo sapiens) (UniProt P10636)
UniProt P10636, sequence (P10636 whole entry, looked up): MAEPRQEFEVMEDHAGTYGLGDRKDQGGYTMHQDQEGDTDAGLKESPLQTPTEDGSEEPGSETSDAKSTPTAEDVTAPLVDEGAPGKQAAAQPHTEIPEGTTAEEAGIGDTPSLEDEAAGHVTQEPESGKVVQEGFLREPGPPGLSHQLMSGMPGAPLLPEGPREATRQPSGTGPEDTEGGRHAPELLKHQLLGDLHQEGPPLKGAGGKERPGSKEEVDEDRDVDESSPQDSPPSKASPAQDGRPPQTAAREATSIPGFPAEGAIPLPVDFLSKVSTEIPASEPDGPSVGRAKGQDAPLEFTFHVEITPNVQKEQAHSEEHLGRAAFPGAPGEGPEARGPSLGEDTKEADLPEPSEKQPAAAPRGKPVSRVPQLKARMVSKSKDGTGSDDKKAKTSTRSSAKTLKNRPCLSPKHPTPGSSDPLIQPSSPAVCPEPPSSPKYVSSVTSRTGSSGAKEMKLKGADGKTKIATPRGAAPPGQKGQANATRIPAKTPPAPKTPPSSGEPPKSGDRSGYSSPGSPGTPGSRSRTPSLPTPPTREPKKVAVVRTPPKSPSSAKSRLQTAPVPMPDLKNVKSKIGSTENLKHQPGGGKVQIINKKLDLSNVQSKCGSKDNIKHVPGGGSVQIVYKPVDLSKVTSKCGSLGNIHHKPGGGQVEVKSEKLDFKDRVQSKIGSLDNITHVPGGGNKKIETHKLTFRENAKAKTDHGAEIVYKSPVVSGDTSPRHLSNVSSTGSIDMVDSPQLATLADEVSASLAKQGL
Test: qHTS for Inhibitors of Tau Fibril Formation, Fluorescence Polarization; also: nearly all actives have a fitted effect of over 55% in size
Conditions: K18 P301L tau heparin fibrillization, Alexa594 FP, 6 h; series mostly up to 57.7 µM; activity, negative = inhibition: at the top concentration
How it was run: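 Heparin (20 uM) drove fibril formation of recombinant tau K18 P301L, 15 uM unlabeled with 0.24 uM Alexa 594 label, for 6 hr at 37 C in 100 mM sodium acetate pH 7. Fluorescence polarization (555/632 nm) read 1 hr after 30 uM ThT.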
% is scaled to controls: 0 for no effect and ±100 for the full control effect; potency is read from the fitted curve at half-maximal effect; tags tell the direction and shape of the fitted curve.

Structure (SMILES) | activity, negative = inhibition | Potency
CCN(CC)CCN(C(=O)c1ccc(C(=O)OC)cc1)c1nc2ccc(Cl)cc2s1 | inactive: 2.38% | –
CC(C)c1ccc(S(=O)(=O)Nc2ccc(O)c(Sc3nc4ccccc4s3)c2)cc1 | – | inconclusive: 28.2 µM [inhibitor, single point]
O=C1C(Cl)=C(N2CCN(c3ccccc3[N+](=O)[O-])CC2)C(=O)c2ccccc21 | – | active: 10 µM
CN1CCc2c(sc3c2C(=O)NC(c2ccc(-c4cccc(Cl)c4)o2)N3)C1 (centres undefined) | – | inconclusive: 44.7 µM [inhibitor, single point]
CSc1cccc(NC(=O)C2CCN(S(=O)(=O)c3ccc4[nH]c(=O)ccc4c3)CC2)c1 | – | inconclusive: 31.6 µM [inhibitor, single point]
Cc1ccc(/C=C/C2=Cc3c(sc(NC(=O)CSc4n[nH]c(N)n4)c3C#N)C(C)(C)C2)o1 | – | inconclusive: 15.8 µM [inhibitor, partial curve, poor fit]
OC1CCN(c2c3c(nc4cc(-c5ccc(F)cc5)nn24)CCC3)CC1 | inactive: -0.151% | –
COc1ccc(O)c(/C=N/N2CCOCC2)c1 | inactive: 8.34% | –
CCOC(=O)N1CCC(N2C(=O)c3ccccc3C2Nc2cccnc2)CC1 (centres undefined) | inactive: 2.22% | –
O=C(COC(=O)/C=C/c1ccc(Cl)cc1Cl)Nc1ccc2c(c1)OCCO2 | – | inconclusive: 3.55 µM [inhibitor, full curve, poor fit]
O=C(N/N=C/C(Br)=C/c1ccccc1)c1cc(-c2ccco2)[nH]n1 | – | inconclusive: 28.2 µM [inhibitor, partial curve]
O=c1c(C(c2ccc(Br)cc2)c2c(O)nc3n(c2=O)CCS3)c(O)nc2n1CCS2 | – | inconclusive: 25.1 µM [inhibitor, partial curve, poor fit]
CCc1ccc2occ(CC(=O)Nc3c(C(=O)Nc4ccc(Cl)cc4)oc4ccccc34)c2c1 | – | inconclusive: 20 µM [inhibitor, partial curve]
CN(C)c1ccc(NC(=O)Cn2c(SCc3ccc(F)cc3)nc3cccnc32)cc1 | inactive: 9.77% | –
Cc1ccccc1Cn1c(=O)n(CCCCC(=O)NCCc2ccccc2)c(=O)c2ccccc21 | inactive: 3.64% | –
CCc1ccc(NC(=O)CSC2=Nc3ccccc3C3=NC(CC(=O)NCc4ccc5c(c4)OCO5)C(=O)N23)cc1 (centres undefined) | – | inconclusive: 20 µM [activator, partial curve]
O=C(/C=C/c1cccc(Cl)c1)c1nc2ccccc2[nH]1 | inactive: 4.73% | –
CCOC(=O)c1[nH]c2c(c1Cc1ccccc1)C(=O)CC(c1ccc(OC)cc1)C2 (centres undefined) | – | inconclusive: 35.5 µM [inhibitor, single point]
C=CC(=O)c1ccc2ccccc2c1 | – | inconclusive: 17.8 µM [inhibitor, single point] and inconclusive: 2.82 µM [activator, partial curve]
